According to publication PMC8938451:
Results are given in words; binding and its absence hold for the method and conditions named. Binding seen in cells or lysates may run through a third protein. Some binding calls cover weakened binding; strength is not graded here. Sequences can lack the tags named with a protein.

Sequences of proteins named here, by UniProt entry; tags and fusion partners are left off.
UniProt Q9NVJ2: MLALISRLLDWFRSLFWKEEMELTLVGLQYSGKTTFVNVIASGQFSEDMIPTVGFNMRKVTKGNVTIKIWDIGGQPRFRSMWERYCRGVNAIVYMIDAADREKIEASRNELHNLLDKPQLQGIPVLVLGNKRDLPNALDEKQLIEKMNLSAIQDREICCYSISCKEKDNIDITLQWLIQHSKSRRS

Tests used:
[1] = biological target: T1, RUFY4-FLAG (human) (UniProt Q6ZNE9); experiment: co-IP; lysates of HEK293T cells transfected with FLAG-tagged proteins, anti-FLAG magnetic agarose overnight at 4 °C (25 mM Tris-HCl pH 7.4, 0.15 M NaCl, 1 mM EDTA, 1% NP-40, 5% glycerol); immunoblot for endogenous ARL8A and ARL8B
T1 sequence: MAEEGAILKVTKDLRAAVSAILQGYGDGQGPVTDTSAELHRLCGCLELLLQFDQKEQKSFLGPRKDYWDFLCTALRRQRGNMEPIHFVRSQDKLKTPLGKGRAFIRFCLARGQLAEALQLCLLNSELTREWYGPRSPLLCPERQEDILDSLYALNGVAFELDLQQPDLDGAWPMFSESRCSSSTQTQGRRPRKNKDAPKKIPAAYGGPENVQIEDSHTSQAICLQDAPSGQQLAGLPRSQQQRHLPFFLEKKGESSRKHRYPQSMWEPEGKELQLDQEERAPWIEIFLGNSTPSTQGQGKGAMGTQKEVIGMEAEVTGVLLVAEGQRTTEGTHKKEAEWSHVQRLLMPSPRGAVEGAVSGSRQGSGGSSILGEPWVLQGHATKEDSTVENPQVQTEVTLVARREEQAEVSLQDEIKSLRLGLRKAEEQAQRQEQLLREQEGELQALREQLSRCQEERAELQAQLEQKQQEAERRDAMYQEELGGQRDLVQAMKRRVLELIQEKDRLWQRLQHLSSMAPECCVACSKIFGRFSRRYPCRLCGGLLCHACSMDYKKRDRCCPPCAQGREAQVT

[2] = biological target: T2, RUFY3.1-GFP (human) (UniProt Q7L099); experiment: co-IP; lysates of HEK293T cells transfected with GFP-tagged proteins, magnetic GFP-Trap 2 h at 4 °C (25 mM HEPES pH 7.4, 0.2% NP-40, 0.5 mM Mg-ATP, 50 mM potassium acetate); immunoblot for endogenous DIC and p150Glued
T2 sequence: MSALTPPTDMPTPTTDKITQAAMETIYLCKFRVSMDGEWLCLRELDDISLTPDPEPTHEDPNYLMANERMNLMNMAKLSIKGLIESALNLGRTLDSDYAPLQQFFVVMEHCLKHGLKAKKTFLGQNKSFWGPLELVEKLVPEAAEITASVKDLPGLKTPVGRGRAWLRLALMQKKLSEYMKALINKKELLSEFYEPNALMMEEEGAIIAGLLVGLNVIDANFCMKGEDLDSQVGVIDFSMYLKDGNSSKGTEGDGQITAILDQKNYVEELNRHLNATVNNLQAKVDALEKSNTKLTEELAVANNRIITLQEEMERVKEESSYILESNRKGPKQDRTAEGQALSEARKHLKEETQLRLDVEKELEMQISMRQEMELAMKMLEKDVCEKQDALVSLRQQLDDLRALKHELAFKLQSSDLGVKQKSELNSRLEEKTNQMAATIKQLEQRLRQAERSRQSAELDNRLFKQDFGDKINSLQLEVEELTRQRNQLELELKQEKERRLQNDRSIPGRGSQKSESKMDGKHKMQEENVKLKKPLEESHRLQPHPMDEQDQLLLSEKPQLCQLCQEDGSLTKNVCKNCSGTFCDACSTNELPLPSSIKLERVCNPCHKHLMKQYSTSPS

[3] = biological target: T3, RUFY4-GFP (human) (UniProt Q6ZNE9); experiment: as above
T3 sequence: T1 sequence

[4] = biological target: T4, 6His-StrepII-sfGFP-RUFY3 (human) (UniProt Q7L099); experiment: pull-down; 40 ug purified 6His-StrepII-sfGFP proteins mixed with cleared HEK293T lysate and Strep-Tactin Sepharose overnight at 4 °C (25 mM HEPES pH 7.4, 0.2% NP40, 1 mM Mg-ATP, 50 mM potassium acetate); immunoblot for endogenous DIC and p150Glued; only the target purified
T4 sequence: T2 sequence

Row | binding [1] | binding [2] | binding [3] | binding [4] | Substance
1 | binds |  |  |  | ARL8B, endogenous (from UniProt Q9NVJ2 1-186)
2 |  | binds | binds | binds | p150^Glued subunit of dynactin, endogenous (from UniProt Q14203-1 1-1278)
